From PubChem BioAssay AID1347120 (National Center for Advancing Translational Sciences (NCATS), 2019)
Hit rate of the full screen: of about 390,000 compounds, about 930 (0.24%) were called active. The shares of active, inactive and inconclusive entries below differ from those in the screen. The call rests on the fitted dose curve; in most records, active means well fitted activation curve with a large enough effect; inconclusive means small, poorly fitted or top-dose-only effect; inactive means no such curve, though single readings can be large or run the other way. Potencies of inconclusive entries are doubtful fits and often do not repeat.

Test: qHTS for Suppressors of FUS Proteinopathy: Primary screen using FUS-linked yeast assay; further: nearly all actives have a fitted effect of over 55% in size;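 on growth rescue (activation): plate controls were DMSO vehicle for no effect and reference control for full effect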
Conditions: S. cerevisiae FUS-expressing, OD600, 24 h; Potency: growth rescue; growth rescue (activation): at 76.6 µM (top of the series)
Outline: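 Yeast FUS proteinopathy model; galactose-induced FUS (2%), starting OD 0.005. Cpds in dilution series, 24hr, 30C, 99% humidity. Abs 600 nm growth. Pos ctrl CP55940 (top 92uM final); neg ctrl DMSO.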
Potency means the concentration at half of the fitted maximal effect; tags describe the fitted curve by direction and shape.

Row | SMILES | growth rescue (activation) | Potency
1 | COc1cccc(NS(=O)(=O)c2ccc(-c3cc(C)no3)s2)c1 | inactive: 7.07% | –
2 | COc1ccc(NC(=O)c2cc(-c3ccc(F)cc3OC)n[nH]2)c(OC)c1 | inactive: -16.8% | –
3 | CCOC(=O)c1cc(-c2ccccc2)n(-c2cccc(C(=O)Nc3ccc(OCC)cc3)c2)c1C | – | inconclusive: 22.4 µM [activator, partial curve, poor fit]
4 | CC(C)OC(=O)c1ccc(COC(=O)c2cccc(-c3nnc(-c4ccccc4)o3)c2)cc1 | inactive: 0.304% | –
5 | CCc1ccc(NC(=O)C(CC)n2c(=O)c(C(F)(F)F)nc3ccccc32)cc1 (stereo not given) | inactive: -6.68% | –
6 | COc1cc(Cl)c(C)cc1Nc1ncnc2c1nc1n2CCCC1 | inactive: -8.26% | –
7 | Cc1ccc(C(=O)OCC(=O)c2ccc(CC(=O)N3CCOCC3)s2)c(C)c1 | – | inconclusive: 39.8 µM [activator, partial curve, poor fit]
8 | Cc1ccc(Nc2nnc(-c3ccc(C)c(S(=O)(=O)NCc4nc5ccccc5[nH]4)c3)c3ccccc23)cc1 | – | inconclusive: 50.1 µM [activator, single point]
9 | C#CCN(C[C@H]1[C@H](OC(=O)NC2CCCC2)[C@H](OC(=O)NC2CCCC2)C[C@H]2C(=O)N(c3ccccc3)C(=O)[C@@H]12)S(=O)(=O)c1ccc(C)cc1 | – | inconclusive: 31.6 µM [activator, single point]
10 | CC1CCCN(C(=O)c2cc3c(Cl)nc4ccccc4c3s2)C1 (stereo not given) | inactive: 35.7% | –
11 | CCOC(=O)/C=C/c1ccc(C(F)(F)F)cc1S(=O)(=O)NC(C)(C)C | – | inconclusive: 28.2 µM [activator, single point]
12 | O=C1CC(N2CCCN(Cc3ccccc3)CC2)=NC(=O)N1c1ccc(Br)cc1 | inactive: 13.4% | –
13 | Cc1ccc2c(c1)N(CCCC(=O)N(C)Cc1ccccc1F)C(=O)CO2 | inactive: 27.3% | –
14 | CC(=O)OC(c1nc2ccccc2c(=O)n1C1CC2(OC1=O)c1ccccc1N1C(=O)C(C)(C)N(O)C12)C(C)C (stereo not given) | – | inconclusive: 25.1 µM [activator, single point]
15 | COCCN1C(=O)c2[nH]nc(-c3cc(C)ccc3O)c2C1c1ccc(C(C)C)cc1 (stereo not given) | inactive: 24.4% | –
16 | CCc1ccc(OCC(=O)Nc2ccc3c(c2)COC3=O)cc1 | inactive: 6.92% | –
17 | O=C(NCc1ccc(F)cc1)c1ccccc1OCc1ccccc1 | inactive: -17.7% | –
18 | C/C(CC(=O)Nc1cc(Cl)ccc1Cl)=N\NC(N)=S | – | inconclusive: 17.8 µM [activator, partial curve, poor fit]
19 | CC(Nc1nc(-c2ccc(F)cc2)cs1)c1nc2cc(Cl)c(N3CCCCC3)cc2n1CCOCCO (stereo not given) | – | inconclusive: 25.1 µM [activator, single point]
20 | O=C(O)c1cncc(C#CCC2CCCCC2)c1 | inactive: 10.5% | –
21 | COc1ccc(-c2cn(-c3ccc(C)cc3C)c(=S)[nH]2)cc1OC | – | inconclusive: 35.5 µM [activator, single point]
22 | COc1ccc(NS(=O)(=O)c2cc(OC)ccc2NC(=O)c2cc(C)oc2C)cc1 | – | inconclusive: 22.4 µM [activator, partial curve, poor fit]

Row | SMILES | growth rescue (activation) | Potency
23 | COc1ccccc1CNC(=O)COC(=O)[C@H](Cc1c[nH]c2ccccc12)NC(=O)c1cccs1 | – | inconclusive: 39.8 µM [activator, single point]
24 | CC[C@H]1C(c2ccc(F)cc2)=NN(c2ccccc2)[C@@H]1CO | inactive: 40.7% | –
25 | COc1ccccc1NS(=O)(=O)c1cc(NC(=O)c2cccc(S(=O)(=O)N(C)C)c2)ccc1N1CCOCC1 | – | inconclusive: 39.8 µM [activator, single point]
26 | Cc1ccc(N2C(=O)C(c3c(C)[nH]n(-c4ccccc4)c3=O)(C(F)(F)F)C3=C2CC(C)(C)CC3=O)cc1 (stereo not given) | inactive: 29.7% | –
27 | CCOc1ccc(-n2c(COc3ccccc3)nnc2SCc2nc3ccccc3[nH]2)cc1 | – | inconclusive: 17.8 µM [activator, single point]
28 | Cn1nnc2c(NCc3ccccc3Cl)ncnc21 | inactive: 24.2% | –
29 | Cc1ccc2nc(N3C(=O)C(O)=C(C(=O)c4ccco4)C3c3cccc(O)c3)sc2c1 (stereo not given) | – | active: 15.8 µM
30 | CC(=O)Nc1cc(-c2ccc(C(=O)N3CCOCC3)cc2)cn2c(-c3ccc(S(C)(=O)=O)cc3)cnc12 | – | inconclusive: 50.1 µM [activator, single point]
31 | COc1cccc(-c2cnc3c(NC=O)cc(-c4cccc(C(=O)N(C)C)c4)cn23)c1 | – | inconclusive: 50.1 µM [activator, single point]
32 | COc1ccc(S(=O)(=O)Cc2ccc(C(=O)N3CCN(c4cccc(C)c4)C(C)C3)o2)cc1 (stereo not given) | – | inconclusive: 22.4 µM [activator, partial curve]
33 | COc1ccc(N2CC(NC(=O)c3cc4ccccc4o3)CC2=O)cc1OC (stereo not given) | inactive: 24.8% | –
34 | COc1ccc(N(Cc2ccccc2)S(=O)(=O)c2cccc(C(=O)Nc3ncccc3C)c2)cc1 | – | inconclusive: 35.5 µM [activator, single point]
35 | C=CC[C@H](CC(=O)NCCO)C(=O)N[C@H](COC(=O)[C@H](CC=C)CC(=O)OC(C)(C)C)Cc1c[nH]c2ccccc12 | – | inconclusive: 12.6 µM [activator, partial curve, poor fit]
36 | CCOC(=O)c1cc(NC(=O)c2ccc(C)cc2)c(=O)n2c1oc1ccc(Cl)cc12 | inactive: -8.48% | –
37 | O=C(Nc1ccc(F)cc1F)c1c(C(F)(F)F)ccnc1Oc1cccc(C(F)(F)F)c1 | – | inconclusive: 44.7 µM [activator, single point]
38 | Cc1ccc2c(c1)N(CC(=O)NCc1ccccc1Br)C(=O)c1cccnc1O2 | – | inconclusive: 50.1 µM [activator, single point]
39 | Cc1cc(/C=N/NC(=O)c2cccc([N+](=O)[O-])c2)c(C)n1-c1ccccc1 | – | inconclusive: 35.5 µM [activator, partial curve, poor fit]
40 | Cc1c2ccncc2cc2c1[nH]c1ccccc12 | inactive: -2.46% | –
41 | CCSc1ncc(Cl)c(C(=O)Nc2c(C(=O)c3ccc(C)c(F)c3)oc3ccccc23)n1 | inactive: 2.7% | –
42 | COc1ccc(CC(=O)Nc2ccc(S(=O)(=O)Nc3cc(OC)nc(OC)n3)cc2)cc1 | – | inconclusive: 50.1 µM [activator, single point]
43 | Cc1cccc(N2CCN(C(=O)c3cnn(-c4cccc(Cl)c4C)c3C3CCNCC3)CC2)c1C | – | inconclusive: 28.2 µM [activator, single point]
44 | O=C(NCC(c1cccnc1)N1CCc2ccccc2C1)C(=O)Nc1ccc(Cl)cc1 (stereo not given) | inactive: 6.01% | –

Row | SMILES | growth rescue (activation) | Potency
45 | Cc1ccc(-c2noc(CSc3nnc(Cc4ccccc4)n3-c3cccc(C)c3)n2)cc1 | – | inconclusive: 20 µM [activator, single point]
46 | CC1(C)c2[nH]c3ccccc3c2C[C@H]2C(=O)N(Cc3ccccc3)C(=O)N21 | inactive: 37.2% | –
47 | CCN1CCCC1CN(Cc1cc2ccc(C)c(C)c2[nH]c1=O)C(=O)Nc1ccccc1OC (stereo not given) | – | active: 10 µM
48 | O=C(Nc1cccc(F)c1)C1CCN(c2nnnn2-c2ccccc2)CC1 | inconclusive: 53.7% [activator] | –
49 | CCN(CC)C(=O)c1sc2c(c1C)c(=O)n(Cc1ccccc1)c(=O)n2Cc1ccc(Cl)cc1 | – | inconclusive: 28.2 µM [activator, partial curve]
50 | O=C1N[C@@H](Cc2ccccc2)COC(=O)[C@@H](Cc2ccc(F)cc2)CC/C=C/C[C@@H]1CC(=O)N(CCO)Cc1ccccc1 | – | inconclusive: 31.6 µM [activator, single point]
51 | CC(Oc1ccc2c3c(c(=O)oc2c1)CCC3)C(=O)NC1CCN(Cc2ccccc2)CC1 (stereo not given) | – | inconclusive: 7.08 µM [activator, partial curve]
52 | CC1CN(S(=O)(=O)c2cccc(C(=O)N(CCc3ccccc3)Cc3ccccc3)c2)CC(C)O1 (stereo not given) | – | inconclusive: 50.1 µM [activator, single point]
53 | COC(=O)[C@@]12C[C@@H](CC(=O)NCc3cccs3)C(=O)N(Cc3ccco3)C1=CCC(C)(C)C2 | – | inconclusive: 7.94 µM [activator, full curve, poor fit]
54 | c1ccc(CCNc2ccc3ncc(-c4cccc5ccccc45)n3n2)nc1 | inactive: -17.4% | –
55 | O=C(NCc1ccc2c(c1)CCN2C(=O)c1ccccc1)Nc1cc(F)ccc1F | – | inconclusive: 44.7 µM [activator, single point]
56 | CCC1=Nc2cc(C(=O)NCC(C)c3ccccc3)ccc2Sc2ccc(C)cc21 (stereo not given) | – | inconclusive: 28.2 µM [activator, single point]
57 | CCN(CC)S(=O)(=O)c1cc(NC(=O)C2CC(=O)N(Cc3ccccc3)C2)ccc1Cl (stereo not given) | – | inconclusive: 25.1 µM [activator, partial curve]
58 | Cc1cc2[nH]c3c(c[n+](C)c4ccccc34)c2cc1C | – | inconclusive: 20 µM [activator, partial curve]
59 | CCOC(=O)c1ccc(OCC2c3cc(OC)c(OC)cc3CCN2C(=O)c2ccc(S(=O)(=O)N3CCCC3)cc2)cc1 (stereo not given) | – | inconclusive: 35.5 µM [activator, single point]
60 | CCOC(=O)Cn1c(=O)n(CC2CCCO2)c2nc(-c3ccccc3F)nc(C(N)=O)c21 (stereo not given) | inactive: 5.94% | –
61 | Cc1ccc(NS(=O)(=O)c2ccc(C(=O)N3CCN(c4ccccn4)CC3)cc2)cc1 | inactive: -8.24% | –
62 | CCC(C)Oc1nc(C)cc(C)c1S(=O)(=O)c1ccccc1C (stereo not given) | – | inconclusive: 10 µM [activator, partial curve]
63 | COc1cccc(NC2c3ccccc3C(=O)N2Cc2ccccc2Cl)c1 (stereo not given) | – | inconclusive: 50.1 µM [activator, single point]
64 | COc1ccc(NC(=O)N2CCc3c(sc4c3CCCC4)C2c2ccccc2OC)cc1 (stereo not given) | inactive: -21.8% | –
65 | COc1ccc(Cl)cc1NS(=O)(=O)c1ccc(S(=O)(=O)N2CCCC2)cc1 | – | inconclusive: 50.1 µM [activator, single point]
